Z-score data for 111 molecules are collected here from PubChem BioAssay AID488969 (Vanderbilt High Throughput Screening Facility, 2010).

In all, about 110,000 compounds were measured (“z-score”: median about -0.1, highest 2% from about 2 on). The list shows a part of the results. Calls of active or inactive are those of the source.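 How the source made its calls: active means z-score in the third read window above 3 or below -3; inactive means the rest.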

The target in the assay is Metabotropic glutamate receptor 8 (Rattus norvegicus) (UniProt P70579). As to the kind of experiment: mGluR8 Gi/Go-coupled signaling modulation – cell-based, rat, thallium flux, HTS, primary screen (AID 488969). As to conditions: HEK293 rat mGluR8, GIRK (G protein-gated inwardly rectifying potassium channel) thallium flux, FluoZin2; at 10 µM; stronger effect = higher value; submaximal glutamate (EC20) added with thallium.
Chain of UniProt P70579 (P70579 whole entry, looked up): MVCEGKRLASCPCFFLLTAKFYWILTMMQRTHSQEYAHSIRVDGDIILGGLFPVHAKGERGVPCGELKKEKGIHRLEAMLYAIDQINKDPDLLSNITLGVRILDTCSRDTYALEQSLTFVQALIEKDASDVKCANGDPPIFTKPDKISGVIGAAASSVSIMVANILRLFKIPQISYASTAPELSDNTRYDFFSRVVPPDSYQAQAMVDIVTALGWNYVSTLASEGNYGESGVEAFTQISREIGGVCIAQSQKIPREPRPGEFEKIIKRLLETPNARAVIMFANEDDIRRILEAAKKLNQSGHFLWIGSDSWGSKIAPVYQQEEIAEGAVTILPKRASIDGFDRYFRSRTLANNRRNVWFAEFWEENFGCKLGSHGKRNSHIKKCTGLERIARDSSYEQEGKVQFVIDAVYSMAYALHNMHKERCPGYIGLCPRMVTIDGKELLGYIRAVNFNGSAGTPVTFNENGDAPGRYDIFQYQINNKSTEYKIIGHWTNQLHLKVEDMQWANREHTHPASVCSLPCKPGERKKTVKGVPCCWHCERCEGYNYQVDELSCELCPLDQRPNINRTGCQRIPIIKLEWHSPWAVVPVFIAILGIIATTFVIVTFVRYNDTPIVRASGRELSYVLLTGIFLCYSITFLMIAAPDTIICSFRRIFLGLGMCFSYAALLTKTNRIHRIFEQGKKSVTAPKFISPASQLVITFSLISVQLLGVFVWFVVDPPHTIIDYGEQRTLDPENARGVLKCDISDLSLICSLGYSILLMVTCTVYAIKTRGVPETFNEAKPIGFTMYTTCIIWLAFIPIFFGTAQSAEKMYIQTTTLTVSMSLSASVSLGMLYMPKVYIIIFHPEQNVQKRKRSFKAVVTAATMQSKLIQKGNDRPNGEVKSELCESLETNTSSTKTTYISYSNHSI
As to `CC(C)OCCCNC(=O)c1c(N)n(/N=C/c2cccs2)c2nc3ccccc3nc12`, the z-score is 0.145. The value for `O=C(COc1cccc2cccnc12)N/N=C1\SCC(=O)N1Cc1ccco1` was 1.37; that for `CCCOP(=O)(OCCC)C1(Nc2ccc(C)cc2)CCCCC1` was 0.139; that for `Nc1ncnc(Nc2cc(Cl)cc(Cl)c2)c1[N+](=O)[O-]` was -0.0016. For `O=c1c2c(nc3c(-c4ccc(Cl)cc4)c[nH]n13)CCCC2` the value was active: 12; for `CC(=O)n1cc(/C=C2/N=C(c3ccccc3)OC2=O)c2ccccc21`, 0.0997; for `CCOC(=O)C1CCN(C(=O)c2cc3c(-c4ccc(OC)c(OC)c4)nn(C)c3s2)CC1`, -1.22.

Take `CCC(=O)Nc1sc2c(c1C#N)CCCCC2`: the z-score was found to be 0.16. The value for `COc1ccc(CC(=O)NC2CC(C)(C)NC(C)(C)C2)cc1` was -0.12; that for `O=C1Nc2ccc(F)cc2C12Nc1ccccc1-c1nnc(SCc3ccccc3F)nc1O2` (stereo unspecified) was -0.338; that for `Cc1n[nH]c(C)c1Cc1ccc(C(=O)O)cc1` was 0.431. For `Cc1ccc(OCC(=O)Nc2sc3c(c2C#N)CCC3)cc1` the value was 0.0233. For `Cc1cc(C(=O)Nc2ccc3c(c2)OCO3)cs1` the value was 0.0686; for `CSc1ccccc1C(=O)N1CCOCC1`, -0.0127; for `CN(CC(=O)NCc1ccncc1)S(=O)(=O)c1ccccc1`, -0.404. For `COc1ccc(-n2c(SCC(N)=O)nnc2-c2ccc(NS(=O)(=O)c3ccc(C)cc3)cc2)cc1`, the z-score was 0.0143. For `CC(C)CCNC1=CC(=O)CC(c2ccccc2)C1` (stereo unspecified) the value was 2.1; for `Cc1c(NC(=O)c2ccc(F)cc2)c(=O)n(-c2ccccc2)n1C`, -0.16; for `COc1ccccc1C(=O)Oc1ccc(N2C(=O)CCC2=O)cc1`, 0.0926.

In turn, `Cc1c([N+](=O)[O-])c([N+](=O)[O-])nn1CC(=O)N1CCCCC1` displayed a z-score of -0.199. The molecule `Cc1ccc(C2N3CC4([N+](=O)[O-])CN2CC([N+](=O)[O-])(C3)C4(C)C)cc1` (stereo unspecified) yielded a z-score of 0.0352. For `CC(NCc1ccco1)C(=O)N1CCc2ccccc2C1` (stereo unspecified) the value was 0.108; for `CCN1CCN(S(=O)(=O)c2cc(OC)c(Cl)cc2OC)CC1`, -0.0298.

With `O=C(Cn1nc(C(F)(F)F)c2c1CCC2)NCc1ccc(Cl)cc1`, the z-score is -0.26. For `COc1ccc(C2C=C(C34CC5CC(CC(C5)C3)C4)NC(=S)N2)cc1OC` (stereo unspecified) the value was -0.251. On to `COC(=O)CC1(c2ccccc2)C(=O)c2ccccc2C1=O`, for which the z-score is -0.606. The value for `Cc1ccc(Sc2nnc(Cc3ccccc3)c3ccccc23)cc1` was -0.421; that for `Cc1nc(NCCc2ccc(S(N)(=O)=O)cc2)c2c(C)c(C)sc2n1` was active: 6.05. For `Cn1c(=O)oc2cc(S(=O)(=O)N3CCCC(C(=O)Nc4ccc5c(c4)OCCO5)C3)ccc21` (stereo unspecified) the value was -0.546; for `CN(Cc1cnn(C)c1)C(=O)c1sc2cccc(Cl)c2c1Cl`, -1.73; for `Cc1cc(-c2cccc([N+](=O)[O-])c2)nc2ccccc12`, -0.424. In the case of `O=C(COC(=O)c1n[nH]c(=O)c2ccccc12)c1ccc(Cl)cc1`, the z-score turned out to be 0.374. For `CC(C)C[C@H](NC(=O)Nc1ccccc1F)C(=O)O` the value was -0.103. Molecule `CCOC(=O)Cc1csc(NC(=O)COc2ccccc2OC)n1` showed a z-score of 0.143.

Molecule `COc1ccc(OC)c(CNCCNC(=O)c2ccco2)c1` displayed a z-score of -0.131.

Molecule `Fc1cccc(NC(=S)NCCN2CCOCC2)c1` returned a z-score of -0.326.

Take `CC(C)(C)n1nnnc1C(c1ccncc1)N1CCN(C2CCCCC2)CC1` (stereo unspecified): the z-score was -0.312. For `COc1ccc(C(=O)NC2CCCCCC2)cc1S(=O)(=O)Nc1ccc(Br)cc1` the value was 0.0178; for `C/C(=N/Nc1nc(C)cc(-c2ccccc2)n1)c1ccco1`, 0.158. For `O=C(CC1COc2ccccc2O1)NC1CCCCC1` (stereo unspecified) the value was 0.48; for `COc1ccc(-c2nc3c(c(=O)[nH]c(=O)n3Cc3ccccc3)n2C)cc1`, 0.265; for `COc1ccc(S(=O)(=O)NCCSCc2cccc(C)c2)cc1Br`, 0.341. The value for `CC(C)Cc1ccc(/C(=N/O)C(=O)O)s1` was 0.0106; that for `Nc1nc(SCC(=O)NC2CCCCC2)[nH]c(=O)c1-c1ccccc1` was 0.0888; that for `Cc1ccc(C(=O)N/C(=C\c2cccs2)c2nc3ccccc3[nH]2)cc1` was -0.263. As to `COC(=O)CN(c1ccc(C)c(Cl)c1)S(C)(=O)=O`, the z-score is -0.114. The value for `CCCc1nnc(SCC(=O)N2C(C)CCCC2C)n1CC1CCCO1` (stereo unspecified) was -0.37. The value for `COC(=O)C1CCCN1S(=O)(=O)c1ccc2ccccc2c1` (stereo unspecified) was 2.41; that for `COc1cc2cc(CN(CCN3CCCC3)C(=O)Nc3ccccc3Cl)c(=O)[nH]c2cc1OC` was -0.447; that for `O=C(CCCCCN1C(=O)CCC1=O)NCc1ccccc1` was -0.0832. The value for `COC(=O)c1sc2nc(-c3ccccc3)c3c(c2c1N)CCCC3` was -0.0945.

`Cc1ccc(S(=O)(=O)N(C)CCCC(=O)N2CCN(C=O)CC2)cc1` came in with a z-score of 0.113. The value for `Cc1ccc(S(=O)(=O)N(C)c2ccc(OCC(=O)Nc3nc(-c4ccccc4)cs3)cc2)cc1` was -0.277.

For the molecule `CCn1c(=O)cc(SCC(=O)N(C)Cc2ccccc2)c2ccccc21`, the z-score was -0.0404. For `CCSc1ccccc1C(=O)Nc1cc(C)on1` the value was 0.549; for `C=CCc1cccc(CNc2c(C)n(C)n(-c3ccccc3)c2=O)c1O`, 0.0234.

As for `CCSc1nnc(-c2ccc(Cl)cc2Cl)o1`, the z-score is -0.571.

Molecule `CCOC(=O)N1CCN(C(=O)c2ccc(N(Cc3ccccc3)S(C)(=O)=O)cc2)CC1` yielded a z-score of -0.371. The molecule `CCOC(=O)c1oc2ccccc2c1NC(=O)Cc1cccs1` displayed a z-score of -0.898.

`CC(=O)N1CCN(S(=O)(=O)c2cccc(C(=O)Nc3nc4ccccc4[nH]3)c2)CC1` had a z-score of 0.114. The value for `O=C(O)c1cccc(NC(=S)NC(=O)C(c2ccccc2)c2ccccc2)c1` was -0.745; that for `CC(C)c1nnc(-c2ccc(Cl)cc2)c(N(C)C)n1` was -0.269; that for `O=C1/C(=C/c2cccnc2)SC(=S)N1C1CCS(=O)(=O)C1` (stereo unspecified) was -0.0337. The value for `N#C/C(=C\N1CCN(Cc2ccc3c(c2)OCO3)CC1)c1nc2ccccc2s1` was -0.00246; that for `COc1ccccc1N1CCN(C(=O)CSc2nc(N)cc(=O)[nH]2)CC1` was -0.298; that for `c1ccc(Cn2nnnc2CN2CCOCC2)cc1` was -0.23. For `C/C(=N\NC(=S)NC1CCCCC1)c1ccc(C#N)cc1` the value was 1.56; for `CCc1ccccc1N(CC(=O)N1CCN(c2ccc(F)cc2)CC1)S(C)(=O)=O`, -0.106. On to `Cc1cccc(-c2nnc(SCc3cc(=O)[nH]c4ccccc34)n2C)c1`, for which the z-score came out at 0.106. For `CCOC(=O)C(O)(CC(=O)c1ccc(OC)cc1)C(F)(F)F` (stereo unspecified) the value was -1.17; for `CN(CC(=O)Nc1nc2ccc(F)cc2s1)S(=O)(=O)c1ccc(Cl)cc1`, 0.625.

The molecule `Oc1[nH]c2ccccc2c1C=NCC1CCCO1` (stereo unspecified) came in with a z-score of -0.00202.

As to `CCCN=C1N/C(=C\c2ccco2)C(=O)N1c1ccccc1`, the z-score was 0.0674. Molecule `Cc1nc2ccccn2c1C(=O)/C=C/c1ccc(F)cc1` yielded a z-score of -0.0172. The value for `CCC(C)N1C(=O)CCC1C(=O)N1CCN(c2ccccc2F)CC1` (stereo unspecified) was 0.402. The value for `S=c1nc2ccccc2c2nc(-c3ccccc3)[nH]n12` was 2.81; that for `Cc1cc(NCCN2CCOCC2)n2nc(C)c(-c3ccccc3)c2n1` was 0.00731; that for `Cc1oc2c(CN3CCOCC3)c(O)ccc2c(=O)c1-c1ccccc1` was 1.15. The value for `COc1ccccc1Nc1ncnc2nc[nH]c12` was -0.317. For the molecule `O=C1CN=C(Nc2ccccc2)N1Cc1cccs1`, the z-score was -0.659. The molecule `CCN(CC)C(=O)CSC1=C(C#N)C(c2cccs2)C=C(C)N1` (stereo unspecified) displayed a z-score of 0.282. Consider `C/C(Cc1ccccc1)=N\NC(=O)c1cccnc1`, for which the z-score was -0.311. On to `CC(C)Sc1cc(N2CCCC2)nc(-c2ccccc2)n1`, for which the z-score was -0.246. For `COC(=O)CNC(c1ccccc1)c1cc(Br)ccc1NC(=O)CCN1CCOCC1` (stereo unspecified) the value was -0.271; for `FC(F)(F)c1cc(C(F)(F)F)c2ccc(Oc3ccccc3)nc2n1`, -0.296.

Molecule `CCOC(=O)C1CCN(C(=O)Cn2cc(C(=O)C3CC3)c3ccccc32)CC1` displayed a z-score of -0.86. On to `CCC(C)[C@H](NC(=O)NCc1cccc(OC)c1)C(=O)OC` (stereo partly specified), for which the z-score worked out at 0.846.

The molecule `CC1Cc2ccccc2N1C(=O)CN1C(=O)C(=O)N(Cc2ccccc2)C1=O` (stereo unspecified) displayed a z-score of -0.177. For `CC(C)(C)c1ccc(Oc2cccc(C3CC(=O)C(C4NCCc5ccccc54)C(=O)C3n3cncn3)c2)cc1` (stereo unspecified) the value was 0.0317. For `O=C(NC(Nc1cc(C(F)(F)F)ccc1Cl)C(=O)c1ccccc1)c1ccccc1` (stereo unspecified) the value was -0.142; for `Oc1oc(-c2ccccc2)nc1C=NCc1ccccc1`, 0.637. The value for `Cc1ccc(S(=O)(=O)CCC(=O)NCc2ccco2)cc1` was -0.231; that for `Cn1c(=O)[nH]c(=O)c2c1nc(N1CCCCC1)n2CCCSc1nnnn1-c1ccccc1` was -0.187; that for `CC(=O)Nc1sc(N/N=C\c2ccco2)nc1-c1cccs1` was -0.754. Consider `Cc1cccn2c(=O)c3cc(C#N)c(=N)n(Cc4cccnc4)c3nc12`, for which the z-score was -0.055. For `COc1cc(N)ccc1NC(=O)c1cccs1` the value was -0.15; for `Cc1nn(C)c(Oc2cccc(Cl)c2)c1C(=O)Nc1ccc(F)cc1`, -0.706. Molecule `Cc1ccc(-c2csc(NC(=S)NC(=O)c3cc4ccccc4o3)n2)cc1` showed a z-score of -0.451. For `Clc1ccccc1-c1ccc(/C=N/n2cnnc2)o1` the value was 0.334. For `COc1ccc(NC(=O)CSc2nnc(Cc3cccn3C)n2CCc2ccccc2)c(OC)c1` the value was -0.229. For `Cc1ccc(S(=O)(=O)NC(N)=NCCc2ccccc2)cc1C` the value was 0.045; for `CC(=O)Nc1ccc(C(=O)CSc2ncn(-c3ccccc3)n2)cc1`, 0.279.

Consider `O=C(O)C1CCCN1C(=O)Nc1ccc(F)cc1` (stereo unspecified), for which the z-score was -0.0272. The value for `Cc1onc(-c2ccccc2)c1C(=O)Nc1sc2c(c1C#N)CCC(C)C2` (stereo unspecified) was 0.289; that for `COc1ccc(CNC(=O)CSc2nc3c(c(=O)n(C)c(=O)n3C)n2C)cc1` was 0.0562. Consider `CN(c1ccccc1C(=O)Nc1ccc(S(=O)(=O)N2CCOCC2)cc1)S(C)(=O)=O`, for which the z-score is 0.219. The value for `N#Cc1nc(COc2ccccc2)oc1N1CCN(c2cccc(Cl)c2)CC1` was active: 3.31; that for `Cc1ccc(C(=O)CN2CCC(NC(=O)C3CCCCC3)CC2)cc1` was -0.227; that for `CCOC(=O)N1CCN(C(=O)CN(C)S(=O)(=O)c2ccc3c(c2)C(C)(C)C(=O)N3C)CC1` was -0.193. The value for `O=C(/C=C/c1cccc([N+](=O)[O-])c1)NCCSCc1cccc(Cl)c1` was 0.0942; that for `COC(=O)c1ccccc1NC(=O)CN(Cc1ccccc1)S(C)(=O)=O` was 1.15.
